# PMC4336329 (PLoS ONE, 2015)
# About 14,000 (4.5%) of roughly 310,000 compounds showed an effect of 50% or more. Effects have a minus sign here. This is one part of the list.
# Molecular target: human ether-à-go-go-related gene (hERG) potassium channel (human, UniProt Q12809)
# Assay: primary screen, population patch clamp on CHO cells stably expressing hERG
# 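Further: peak tail current of the secondary pulse compared with the same well before compound.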
# Sequence of human ether-à-go-go-related gene (hERG) potassium channel (Q12809 whole entry, looked up): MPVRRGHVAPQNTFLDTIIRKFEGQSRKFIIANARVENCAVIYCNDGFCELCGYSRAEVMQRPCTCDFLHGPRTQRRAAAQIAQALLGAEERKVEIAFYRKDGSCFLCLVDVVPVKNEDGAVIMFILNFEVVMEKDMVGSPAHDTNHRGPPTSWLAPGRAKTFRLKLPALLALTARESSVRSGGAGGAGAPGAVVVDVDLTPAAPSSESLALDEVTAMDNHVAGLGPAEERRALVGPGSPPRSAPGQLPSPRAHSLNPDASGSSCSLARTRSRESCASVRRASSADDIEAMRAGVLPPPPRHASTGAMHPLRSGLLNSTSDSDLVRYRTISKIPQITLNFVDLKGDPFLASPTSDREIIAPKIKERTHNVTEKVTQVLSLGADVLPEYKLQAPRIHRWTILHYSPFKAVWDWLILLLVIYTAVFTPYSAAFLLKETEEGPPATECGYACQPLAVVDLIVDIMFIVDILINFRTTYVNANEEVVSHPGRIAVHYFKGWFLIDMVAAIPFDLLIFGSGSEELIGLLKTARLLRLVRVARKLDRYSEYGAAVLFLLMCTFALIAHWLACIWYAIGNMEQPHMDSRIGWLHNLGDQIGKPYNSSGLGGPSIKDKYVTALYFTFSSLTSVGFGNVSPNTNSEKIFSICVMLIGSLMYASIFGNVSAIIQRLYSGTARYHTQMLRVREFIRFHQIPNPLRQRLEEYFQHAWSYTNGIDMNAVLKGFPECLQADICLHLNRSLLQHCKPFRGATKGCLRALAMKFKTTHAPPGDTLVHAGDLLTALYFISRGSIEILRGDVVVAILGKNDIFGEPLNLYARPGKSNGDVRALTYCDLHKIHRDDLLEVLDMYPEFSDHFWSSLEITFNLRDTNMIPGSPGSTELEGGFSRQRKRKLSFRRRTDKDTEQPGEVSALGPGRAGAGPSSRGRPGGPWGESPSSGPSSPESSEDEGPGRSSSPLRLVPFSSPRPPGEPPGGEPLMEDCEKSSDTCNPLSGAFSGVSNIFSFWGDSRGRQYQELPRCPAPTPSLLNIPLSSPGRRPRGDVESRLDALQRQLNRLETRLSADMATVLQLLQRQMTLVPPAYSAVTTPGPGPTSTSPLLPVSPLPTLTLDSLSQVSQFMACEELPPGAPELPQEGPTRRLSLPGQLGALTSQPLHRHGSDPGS
row,SMILES,"hERG current change (%, negative = inhibition) at 10uM [%]"
1,Cn1ccnc1-c1nnn(-c2ccc(F)cc2)n1,3.12
2,CCCCn1c(=O)c(C(=O)NCc2ccccc2Cl)c(O)c2ccccc21,26.1
3,N/C(=N\OC(=O)c1ccccc1Br)c1cccc([N+](=O)[O-])c1,3.17
4,N#CC1=C(N)OC2=C(C(=O)CCC2)[C@]12C(=O)N(CC(N)=O)c1ccccc12,4.73
5,CCOC(=O)c1ccc(NC(=O)Nc2cccc(C)n2)cc1,22.5
6,Cc1ccc(C(=O)NCc2ccccc2)c(F)c1F,13.2
7,COc1cc(OC)cc(C(=O)N2CCN(c3ncccn3)CC2)c1,-19.3
8,Cc1cc(O)cc(C)c1NS(=O)(=O)c1ccc2ccccc2c1,-9.59
9,COc1ccc(C(=O)N[C@H](C(=O)N2CCN(c3ccccc3F)CC2)C(C)C)cc1,-3.37
10,O=C(Nc1cccc(F)c1)Nc1ccnn1C1CCN(C(=O)c2cscn2)CC1,11.6
11,CCOC(=O)C1(CC)NC(c2ccc(OC)c(OC)c2)C2C(=O)N(c3cccc(C(C)=O)c3)C(=O)C21 (stereo not drawn),16.5
12,CC1NC(=S)N(C2CCCCC2)C1=O (stereo not drawn),24.6
13,O=C(CSc1oc(-c2ccco2)nc1S(=O)(=O)c1ccccc1)NCC1CCCO1 (stereo not drawn),-2.1
14,COc1cc(OC)cc(N(C(=O)c2ccco2)C(C(=O)NC2CCCC2)c2ccc(N3CCOCC3)cc2)c1 (stereo not drawn),-11.9
15,CCCC(=O)Nc1cccn(Cc2ccccc2Br)c1=O,-6.57
16,COC(=O)c1cccc(NC(=O)c2ccc3c(c2)C(=O)N(Cc2cccnc2)C3=O)c1,-24.1
17,CNC(=O)C12CC3CC(CC(Cl)(C3)C1)C2,-10.9
18,CC(C)C[C@@H](CN(C)N=O)N(C[C@H](Cc1ccccc1)N(CCc1ccccc1)N=O)N=O.[Na+],-21.8
19,CCCCc1c(O)nc(SCC(=O)N2CCOCC2)n(-c2ccccc2OC)c1=O,7.27
20,CC(C)(C)C1=CC(=Nc2ccccc2N)C=C(C(C)(C)C)C1=O,14.7
21,CCC(Sc1nnc(C)s1)C(=O)Nc1nccs1 (stereo not drawn),-5.54
22,Cc1nc2ccccn2c1C(=O)CSc1ccccc1,-19
23,COc1ccccc1C(C#N)N1N=C(C)CC1c1ccccc1 (stereo not drawn),1.69

row,SMILES,"hERG current change (%, negative = inhibition) at 10uM [%]"
1,CCOC(=O)C1CCCN(C(=O)c2sc3nc(C)nc(N(CC)CC)c3c2C)C1 (stereo not drawn),-25
2,COc1ccccc1CNS(=O)(=O)c1ccc(-n2cccn2)cc1,6.96
3,CCn1cc(CN2CCc3c([nH]c4ccccc34)C2c2ccc(F)c(OC)c2)c(C)n1 (stereo not drawn),6.94
4,COc1ccc(CC(=O)Nc2ccc(OC)c(NC(=O)c3ccco3)c2)cc1,-28.1
5,CN1C(=O)NC(c2ccccc2)C2=C1CN(c1ccc3ccccc3c1)C2=O (stereo not drawn),8.31
6,CC(NC(=O)C1CCCN(S(=O)(=O)c2cccs2)C1)c1ccccc1 (stereo not drawn),6.73
7,S=c1nc(-c2ccccc2)[nH]n1-c1ccccc1,8.01
8,C(=N\Nc1ncnc2sc3c(c12)CCC3)/c1ccncc1,-22.5
9,CCOC(=O)c1c(C)c(C(=O)NCC2CCCO2)c(C)n1C (stereo not drawn),6.6
10,Cc1cc(NC(=O)CCC(=O)N(Cc2ccco2)C(C(=O)NC2CCCC2)c2ccccc2)no1 (stereo not drawn),-18.3
11,CCOC(=O)c1ccc(NCCc2ccc(OC)c(OC)c2)c(N)c1,-31.4
12,O=C(/C=C/c1ccc([N+](=O)[O-])cc1)NNC(=O)C1CC1,1.2
13,O=C(C[n+]1cc(Br)cc2ccccc21)c1ccccc1.[Br-],-21.7
14,CN(C)c1ccc(C(O)P(=O)(OC2CCCCC2)OC2CCCCC2)cc1 (stereo not drawn),0.168
15,Cc1nn(-c2ccccc2)c(C)c1NS(=O)(=O)c1ccccc1,-2.28
16,Cc1ccc(NC(=O)CNC(=O)c2ccco2)cc1,19.6
17,O=C(NCC1CCCCC1)c1ccc(F)c(S(=O)(=O)N2CCOCC2)c1,-10.2
18,COC(=O)C1C(=O)C(C(=O)/C=C/c2ccccc2)C(=O)CC1(C)C (stereo not drawn),23.2
19,O=C(O)c1ccc2c(c1)CCCN2,13.4
20,COc1ccc(CN(CC(=O)NCc2ccc(F)cc2)C(=O)c2ccco2)cc1,-61.7
21,CCC(C)(CCNC(=O)Cc1ccccc1)c1ccccc1OC (stereo not drawn),-21
22,O=C(O)C(=O)O.O=C(c1ccco1)N1CCN(CC2CC3C=CC2C3)CC1 (stereo not drawn),-10.8
